Data: the supplement of paper PMC7826260
This is one part of the list. One pool of 16,384 single-stranded DNAs met each Rep nickase domain in vitro (3 µM enzyme, 1 h, 37 °C); shown is the middle of each 90-letter strand. Values are log2 of uncut reads against the no-enzyme pool; the lower, the more was cut; hits are not called. Counts are relative to all reads; where an enzyme cuts many sequences, the uncut ones exceed 0.

Assays:
Test in all cases: uncleaved DNA left, log2 of reads against the no-enzyme library (log2 ratio); higher = less cleavage (more negative = more Rep cleavage of the k-mer); sequences stand for … in CTCGTCCG…ACCGGAGA
[1] = tested on: T1, Rep nickase domain of Muscovy duck circovirus
T1 sequence (residues 1-111 of Rep, tag left off): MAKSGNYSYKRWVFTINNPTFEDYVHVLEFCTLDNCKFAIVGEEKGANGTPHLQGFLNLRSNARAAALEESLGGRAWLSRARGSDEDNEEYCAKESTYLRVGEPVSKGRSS
Description: (§1)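 A pool of 90-nt single-stranded DNAs with seven random bases just before the constant AC of the nick site (name = the seven bases) was cut by 3 µM recombinant His6-SUMO-tagged Rep nickase domain (300 nM DNA, 50 mM HEPES pH 8.0, 50 mM NaCl, 1 mM MnCl2, 1 h, 37 °C, three replicates). Uncut DNA was amplified and sequenced.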

[2] = tested on: T2, Rep nickase domain of banana bunchy top virus
T2 sequence (residues 1-94 of Rep, tag left off): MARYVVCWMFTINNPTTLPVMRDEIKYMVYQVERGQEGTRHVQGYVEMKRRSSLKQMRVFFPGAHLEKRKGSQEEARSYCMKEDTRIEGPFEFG
Description: as §1

[3] = tested on: T3, Rep nickase domain of cabbage leaf curl virus
T3 sequence (residues 1-116 of Rep, tag left off): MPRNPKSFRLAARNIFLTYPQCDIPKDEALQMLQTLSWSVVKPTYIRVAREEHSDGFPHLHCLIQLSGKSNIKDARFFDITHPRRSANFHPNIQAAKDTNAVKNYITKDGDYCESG
Description: as §1

[4] = tested on: T4, Rep nickase domain of chickpea chlorotic dwarf virus
T4 sequence (residues 1-124 of Rep, tag left off): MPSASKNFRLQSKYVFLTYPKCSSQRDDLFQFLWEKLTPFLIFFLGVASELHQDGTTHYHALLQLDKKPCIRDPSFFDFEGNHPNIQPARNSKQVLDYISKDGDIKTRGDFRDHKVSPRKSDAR
Description: as §1

[5] = tested on: T5, Rep nickase domain of faba bean necrotic yellows virus
T5 sequence (residues 1-98 of Rep, tag left off): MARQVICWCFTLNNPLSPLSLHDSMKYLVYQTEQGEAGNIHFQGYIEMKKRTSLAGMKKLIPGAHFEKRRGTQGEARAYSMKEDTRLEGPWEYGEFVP
Description: as §1

[6] = tested on: T6, Rep nickase domain of maize striate mosaic virus
T6 sequence (residues 1-117 of Rep, tag left off): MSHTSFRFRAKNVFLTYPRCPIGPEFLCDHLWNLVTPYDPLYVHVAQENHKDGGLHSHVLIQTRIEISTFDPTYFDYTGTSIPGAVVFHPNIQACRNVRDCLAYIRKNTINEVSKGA
Description: as §1

[7] = tested on: T7, Rep nickase domain of porcine circovirus 2
T7 sequence (residues 2-116 of Rep, tag left off): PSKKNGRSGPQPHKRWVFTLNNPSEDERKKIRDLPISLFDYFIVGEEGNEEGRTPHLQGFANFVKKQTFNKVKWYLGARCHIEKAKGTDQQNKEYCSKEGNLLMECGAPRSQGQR
Description: as §1

[8] = tested on: T8, Rep nickase domain of tomato golden mosaic virus
T8 sequence (residues 1-124 of Rep, tag left off): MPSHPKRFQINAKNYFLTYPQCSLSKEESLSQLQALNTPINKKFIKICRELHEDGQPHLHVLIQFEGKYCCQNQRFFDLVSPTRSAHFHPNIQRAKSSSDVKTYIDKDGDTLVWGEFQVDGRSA
Description: as §1

[9] = tested on: T9, Rep nickase domain of tomato yellow leaf curl virus
T9 sequence (residues 1-136 of Rep, tag left off): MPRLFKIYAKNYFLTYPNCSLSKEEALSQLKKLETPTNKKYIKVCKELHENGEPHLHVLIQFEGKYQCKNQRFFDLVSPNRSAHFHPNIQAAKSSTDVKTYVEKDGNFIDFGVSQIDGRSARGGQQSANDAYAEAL
Description: as §1

[10] = tested on: T10, Rep nickase domain of wheat dwarf virus
T10 sequence (residues 1-137 of Rep, tag left off): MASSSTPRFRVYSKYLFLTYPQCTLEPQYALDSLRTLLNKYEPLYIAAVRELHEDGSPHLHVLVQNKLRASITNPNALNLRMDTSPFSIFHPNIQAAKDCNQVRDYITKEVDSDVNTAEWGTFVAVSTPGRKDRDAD
Description: as §1

Sequence | uncleaved DNA left (log2) [1] | uncleaved DNA left (log2) [2] | uncleaved DNA left (log2) [3] | uncleaved DNA left (log2) [4] | uncleaved DNA left (log2) [5] | uncleaved DNA left (log2) [6] | uncleaved DNA left (log2) [7] | uncleaved DNA left (log2) [8] | uncleaved DNA left (log2) [9] | uncleaved DNA left (log2) [10]
TACTGAA | -0.102 | -0.0486 | -0.00565 | 0.231 | -0.0171 | 0.898 | -2.13 | 0.0325 | 0.00179 | 0.0918
GCATCAA | -0.00252 | 0.239 | 0.195 | 0.603 | 0.00734 | -0.0446 | 0.0285 | 0.122 | 0.146 | 0.142
TTTTTTC | -0.062 | -0.101 | 0.147 | -0.176 | -0.0358 | -0.634 | -0.0678 | -0.171 | -0.0935 | -0.0511
AACCCTC | -0.00576 | -0.0364 | 0.426 | 0.66 | -0.0489 | 0.479 | -0.23 | -0.0207 | -0.0984 | 0.0129
CGGTATC | 0.192 | 0.152 | 0.264 | 0.704 | 0.0195 | 0.719 | 0.0955 | 0.118 | 0.11 | 0.0708
TAAACAC | -0.0281 | 0.0278 | -1.42 | -2.63 | 0.0277 | -0.733 | -0.0359 | -0.123 | 0.0218 | -0.671
AATTGCT | -3.26 | -1.55 | -0.852 | -1.19 | 0.0862 | -0.691 | -3.58 | -0.0545 | 0.13 | -0.0615
AGCGCCA | -0.0434 | 0.109 | 0.16 | 0.477 | -0.0924 | 1.28 | -0.0166 | 0.116 | 0.0278 | 0.147
AAGGTCT | 0.125 | 0.149 | 0.17 | -0.0105 | 0.135 | 1.1 | -0.389 | 0.136 | 0.0221 | 0.126
GCAGAGA | 0.0371 | 0.152 | 0.579 | 1.21 | 0.0385 | 0.601 | 0.17 | 0.0732 | 0.0359 | 0.178
AACGAAT | 0.117 | 0.0619 | 0.125 | 0.295 | 0.018 | 1.09 | 0.121 | 0.156 | -0.0868 | 0.118
CCTGAAT | 0.0523 | 0.044 | 0.0218 | -0.285 | -0.0286 | -0.324 | -0.292 | -0.0447 | -0.0389 | 0.0158
CCGTAAC | 0.0974 | 0.0157 | -0.0812 | -1.19 | 0.0735 | -0.45 | 0.0946 | – | 0.0137 | -0.0696
TTCCGGA | 0.0462 | 0.0663 | 0.484 | 0.713 | 0.0566 | 0.789 | 0.173 | – | 0.0721 | 0.0462
